# Results as given in PubChem BioAssay AID485294 (National Center for Advancing Translational Sciences (NCATS), 2010).
# Hit rate of the full screen: of about 370,000 compounds, about 150 (0.041%) were called active. The inconclusive results got no clear call from the source; some entries with a clear call stand among them for comparison. The call rests on the fitted dose curve; in most records, active means well fitted inhibition curve with a large enough effect; inconclusive means small, poorly fitted or top-dose-only effect; inactive means flat fitted curve, though single readings scatter. No potency is given beside an inconclusive call; the fits are too rough.
# Biological target: Beta-lactamase (Escherichia coli (strain K12)) (UniProt P00811)
# Sequence of UniProt P00811 (P00811 whole entry, looked up): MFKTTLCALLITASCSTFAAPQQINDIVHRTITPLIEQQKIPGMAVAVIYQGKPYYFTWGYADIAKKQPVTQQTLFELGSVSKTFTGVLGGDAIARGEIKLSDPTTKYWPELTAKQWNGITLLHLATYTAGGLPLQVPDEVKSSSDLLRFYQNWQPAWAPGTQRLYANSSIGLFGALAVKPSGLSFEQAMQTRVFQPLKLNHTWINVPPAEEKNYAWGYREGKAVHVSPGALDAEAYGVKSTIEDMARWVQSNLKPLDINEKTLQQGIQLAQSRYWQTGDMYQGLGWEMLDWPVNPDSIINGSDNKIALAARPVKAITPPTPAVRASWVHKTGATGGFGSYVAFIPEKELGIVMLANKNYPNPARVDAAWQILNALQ
# Assay: qHTS Inhibitors of AmpC Beta-Lactamase (assay with detergent); further: nearly all actives have a fitted effect of over 25% in size
# Conditions: AmpC hydrolysis of nitrocefin, absorbance 480 nm, 0.01% Triton; series mostly up to 114 µM
# Procedure, shortened: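 20 mM phosphate pH 7.0 + 0.01% (detergent screen) or 0.0001% Triton X-100; 5.3 nM AmpC reagent; cpd preinc 15 min RT; nitrocefin (800 uM stock) to start; A480 q20 s × 4 min; Activity was normalised to no-enzyme and no-compound control wells.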
# Potency means the concentration at half of the fitted maximal effect; tags describe the fitted curve by direction and shape.
row,SMILES,Potency
1,Cc1noc(/C=C/c2ccco2)c1S(=O)(=O)N1CCC(C(=O)N2c3ccccc3CC2C)CC1 (centres undefined),"inconclusive [inhibitor, partial curve, poor fit]"
2,O=C(Cc1ccccc1)NC1CCN(S(=O)(=O)c2ccc(C(=O)O)cc2)CC1,inactive
3,COc1ccc(-n2cnc3ccccc3c2=O)c([N+](=O)[O-])c1,"inconclusive [inhibitor, full curve, poor fit]"
4,COc1cc(CN2CCC(C(=O)N3CCCC(C)C3)CC2)cc(OC)c1O (centres undefined),inactive
5,COc1ccc(CN(CC(=O)NC2CCCCC2)C(=O)CCC(=O)Nc2nccs2)cc1,"inconclusive [inhibitor, single point]"
6,COc1cc(-c2c(C#N)c(=O)[nH]c3c2c(C)nn3-c2ccccc2)ccc1O,"inconclusive [inhibitor, full curve, poor fit]"
7,O=C(CSc1nc(-c2ccco2)cc(C(F)(F)F)n1)NC1CCCC1,"inconclusive [inhibitor, full curve, poor fit]"
8,Cc1ccc(/C=C2\SC(=S)N(CCC(=O)NNS(=O)(=O)c3ccccc3)C2=O)cc1,"inconclusive [inhibitor, partial curve]"
9,CCN(CC)S(=O)(=O)c1ccc(/C=C/C(=O)Nc2ccc(N3CCOCC3)cc2)cc1,inactive
10,COC(=O)CC1SC(=O)NC1=Nc1cccc(C)c1 (centres undefined),inactive
11,Cc1ccc(S(=O)(=O)N2CCOCC2)cc1C(=O)NC1CCCCC1,"inconclusive [inhibitor, partial curve, poor fit]"
12,CCOc1ccccc1C(=O)Nc1ccc(S(=O)(=O)N2CCOCC2)cc1,"inconclusive [inhibitor, full curve, poor fit]"
13,COc1nc2c(s1)C(=O)NCCC2,"inconclusive [inhibitor, full curve, poor fit]"
14,CCOC(=O)c1nn(-c2ccc(F)cc2)c(=O)c(C#N)c1C,"inconclusive [inhibitor, full curve, poor fit]"
15,O=S(=O)(Nc1ccc2oc(-c3ccccc3)nc2c1)c1ccccc1,inactive
16,COC(=O)c1sc(Nc2ccccc2)nc1C,inactive
17,O=C(CCN1C(=O)c2cccc3cccc(c23)C1=O)N1CCOCC1,inactive
18,O=C(COc1ccccc1)N(Cc1ccco1)c1ccc(O)cc1,"inconclusive [inhibitor, full curve, poor fit]"
19,CC1CCCC(C)N1C(=O)CSc1nnc(COc2ccccc2)n1-c1ccccc1 (centres undefined),"inconclusive [inhibitor, full curve, poor fit]"
20,Cc1nnc(NC(=O)Cn2c(=O)sc3ccccc32)s1,"inconclusive [inhibitor, partial curve, poor fit]"
21,CN(Cc1ccccc1)C(=O)c1ccccc1NC(=O)c1ccccc1,"inconclusive [inhibitor, single point]"
22,Cc1ccc(N2C(=O)NC(=O)/C(=C/C=C/c3ccco3)C2=O)cc1,inactive
23,CCOc1ccc(CNC(=O)Cn2ncc3c(=O)oc4ccc(C)cc4c32)cc1,inactive

row,SMILES,Potency
1,C/C(=N\NC(=O)c1cccc(Br)c1)c1cccc(NC(=O)c2ccc(C)o2)c1,"inconclusive [inhibitor, partial curve, poor fit]"
2,O=C(CCNC(=O)c1ccccc1Cl)Nc1cc(C(F)(F)F)ccc1Cl,"inconclusive [inhibitor, partial curve, poor fit]"
3,O=C(C1CCCO1)N1CCN(S(=O)(=O)c2cc(C(F)(F)F)ccc2Cl)CC1 (centres undefined),inactive
4,NC(=O)C1CCN(CC(O)COCc2ccccc2Cl)CC1 (centres undefined),"inconclusive [inhibitor, full curve, poor fit]"
5,COc1cc(/C=C/C(=O)O)cc(S(=O)(=O)N(C)CCO)c1OC,inactive
6,COc1cc(OC)c(NC(=S)NCc2ccc(F)cc2)cc1Cl,inactive
7,C=CCSc1nc2c(c(=O)[nH]c(=O)n2C)n1CC,"inconclusive [inhibitor, single point]"
8,COc1ccc(NC(=O)C2CCN(S(=O)(=O)c3cccc4cccnc34)CC2)cc1OC,"inconclusive [inhibitor, full curve, poor fit]"
9,CCCCCCCCCn1cc(C(C)=O)c(=O)[nH]c1=O,"inconclusive [inhibitor, full curve, poor fit]"
10,COCCCNC(=O)c1cc2c(=O)n(C)c3ccccc3c2n1C,"inconclusive [inhibitor, partial curve, poor fit]"
11,CC(=O)c1ccc(N2CCN(C(=O)c3ccc4nc[nH]c4c3)CC2)cc1,"inconclusive [inhibitor, full curve]"
12,Cc1cc(-c2nnc(SCC(=O)Nc3nccs3)o2)no1,"inconclusive [inhibitor, single point]"
13,CCCCn1c(N)c(N(CCOC)C(=O)c2cc3c(s2)CCCCC3)c(=O)[nH]c1=O,"inconclusive [inhibitor, single point]"
14,C/C(=N/O)c1no[n+]([O-])c1/C(C)=N\O,inactive
15,O=C(c1cccs1)c1coc2ccc(O)cc12,"inconclusive [inhibitor, full curve, poor fit]"
16,O=C1CC2C(CC(OC(=O)c3ccc(-c4ccccc4)cc3)C2CO)O1 (centres undefined),inactive
17,CCn1c2ccccc2c2cc(NC(=O)COC(=O)C3CCC(=O)N3)ccc21 (centres undefined),inactive
18,CCOc1ccccc1CNC(=O)CCCN1C(=O)CCn2nc(-c3cccn3C)cc21,inactive
19,Nc1nnc(SCC(=O)OCc2ccccc2)s1,"inconclusive [inhibitor, full curve]"
20,Cc1cccc(N2CCN(C(=O)CSc3nc4ccccc4nc3N3CC(C)OC(C)C3)CC2)c1C (centres undefined),"inconclusive [inhibitor, full curve, poor fit]"
21,COc1cccc(-n2c(SCC(=O)Nc3nccs3)nnc2-c2ccoc2C)c1,"inconclusive [inhibitor, single point]"
22,COCCCNC(=O)CCc1nnc(Cc2ccc(-c3ccccc3)cc2)o1,inactive
23,O=C(NCC(c1cccs1)N1CCOCC1)c1ccc(OCc2ccccc2)cc1 (centres undefined),inactive

row,SMILES,Potency
1,COc1ccccc1-c1coc2c(CN3CCCCC3C)c(O)ccc2c1=O (centres undefined),inactive
2,Cc1cc(NC(=O)C2CCCN(S(=O)(=O)c3cccc4nonc34)C2)ccc1Br (centres undefined),inactive
3,CC(=O)c1ccc(COC(=O)c2cc3ccccc3oc2=O)cc1,inactive
4,CCC(C)NCCCOc1ccc([N+](=O)[O-])cc1 (centres undefined),"inconclusive [inhibitor, full curve]"
5,O=C(C1CCCC1)N1CCN(S(=O)(=O)c2ccc(Cl)cc2)CC1,"inconclusive [inhibitor, single point]"
6,Cc1cccc(OCC(=O)NC(=S)Nc2ccc(S(=O)(=O)NC3CCCCC3)cc2)c1,"inconclusive [inhibitor, full curve, poor fit]"
7,CNC(=S)NNC(=O)COc1ccccc1C,"inconclusive [inhibitor, full curve]"
8,COc1ccc(CN(Cc2ccncc2)C(=O)CCC(=O)O)cc1,"inconclusive [inhibitor, full curve, poor fit]"
9,COc1ccc(NC2c3ccccc3C(=O)N2c2cccnc2)cc1Cl (centres undefined),"inconclusive [inhibitor, partial curve]"
10,CCc1ccc(NC(=O)c2ccc(F)c(S(=O)(=O)NCC3COc4ccccc4O3)c2)cc1 (centres undefined),"inconclusive [inhibitor, full curve, poor fit]"
11,CC1(C)C(=O)Nc2ccccc2N1C(=O)COC(=O)CNS(=O)(=O)c1ccc(F)c(F)c1F,"inconclusive [inhibitor, single point]"
12,CCOCCCNC(c1ccccc1)c1ccncc1 (centres undefined),"inconclusive [inhibitor, full curve, poor fit]"
13,CCOc1cccc(C(=O)Nc2cccc(C(=O)NC(C)(C)C)c2)c1,"inconclusive [inhibitor, partial curve, poor fit]"
14,Nc1nnc(Cc2c[nH]c3ccccc23)s1,"inconclusive [inhibitor, full curve, poor fit]"
15,CC(C)c1ccc(NC(=O)c2cc([N+](=O)[O-])ccc2N2CCOCC2)cc1,"inconclusive [inhibitor, partial curve]"
16,CCOC(=O)N1CCC(=NNC(=O)COc2ccc(OC)cc2)CC1,"inconclusive [inhibitor, full curve, poor fit]"
17,COc1cccc(-n2nnc3c(=O)n(CC(=O)N4CCCc5ccccc54)cnc32)c1,"inconclusive [inhibitor, single point]"
18,COc1ccc(C2=Nn3c(nnc3-c3ccco3)SC2)cc1,"inconclusive [inhibitor, full curve, poor fit]"
19,CCOc1cc(C(N)=O)cc(Cl)c1OCC,"inconclusive [inhibitor, full curve, poor fit]"
20,CCOc1ccc(S(=O)(=O)N2CCCCC2)cc1NC(=O)CCc1ccc(OC)cc1,inactive
21,CCCCOc1ccc(C(=O)N2CCN(c3ccc(N4CCOCC4)nn3)CC2)cc1,"inconclusive [inhibitor, single point]"
22,CC1CCN(S(=O)(=O)c2ccc(Br)s2)CC1,"inconclusive [inhibitor, single point]"
23,COC(=O)c1ccc(Cl)c(NC(=O)CN2CCOCC2)c1,"inconclusive [inhibitor, full curve]"
